# Out of some 310,000 compounds screened, about 14,000 (4.5%) showed an effect of 50% or more. Effects have a minus sign here. This is one part of the list.
# Molecular target: human ether-à-go-go-related gene (hERG) potassium channel (human, UniProt Q12809)
# Assay: primary screen, population patch clamp on CHO cells stably expressing hERG
# 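Also: peak tail current of the secondary pulse compared with the same well before compound.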
# Chain of human ether-à-go-go-related gene (hERG) potassium channel (Q12809 whole entry, looked up): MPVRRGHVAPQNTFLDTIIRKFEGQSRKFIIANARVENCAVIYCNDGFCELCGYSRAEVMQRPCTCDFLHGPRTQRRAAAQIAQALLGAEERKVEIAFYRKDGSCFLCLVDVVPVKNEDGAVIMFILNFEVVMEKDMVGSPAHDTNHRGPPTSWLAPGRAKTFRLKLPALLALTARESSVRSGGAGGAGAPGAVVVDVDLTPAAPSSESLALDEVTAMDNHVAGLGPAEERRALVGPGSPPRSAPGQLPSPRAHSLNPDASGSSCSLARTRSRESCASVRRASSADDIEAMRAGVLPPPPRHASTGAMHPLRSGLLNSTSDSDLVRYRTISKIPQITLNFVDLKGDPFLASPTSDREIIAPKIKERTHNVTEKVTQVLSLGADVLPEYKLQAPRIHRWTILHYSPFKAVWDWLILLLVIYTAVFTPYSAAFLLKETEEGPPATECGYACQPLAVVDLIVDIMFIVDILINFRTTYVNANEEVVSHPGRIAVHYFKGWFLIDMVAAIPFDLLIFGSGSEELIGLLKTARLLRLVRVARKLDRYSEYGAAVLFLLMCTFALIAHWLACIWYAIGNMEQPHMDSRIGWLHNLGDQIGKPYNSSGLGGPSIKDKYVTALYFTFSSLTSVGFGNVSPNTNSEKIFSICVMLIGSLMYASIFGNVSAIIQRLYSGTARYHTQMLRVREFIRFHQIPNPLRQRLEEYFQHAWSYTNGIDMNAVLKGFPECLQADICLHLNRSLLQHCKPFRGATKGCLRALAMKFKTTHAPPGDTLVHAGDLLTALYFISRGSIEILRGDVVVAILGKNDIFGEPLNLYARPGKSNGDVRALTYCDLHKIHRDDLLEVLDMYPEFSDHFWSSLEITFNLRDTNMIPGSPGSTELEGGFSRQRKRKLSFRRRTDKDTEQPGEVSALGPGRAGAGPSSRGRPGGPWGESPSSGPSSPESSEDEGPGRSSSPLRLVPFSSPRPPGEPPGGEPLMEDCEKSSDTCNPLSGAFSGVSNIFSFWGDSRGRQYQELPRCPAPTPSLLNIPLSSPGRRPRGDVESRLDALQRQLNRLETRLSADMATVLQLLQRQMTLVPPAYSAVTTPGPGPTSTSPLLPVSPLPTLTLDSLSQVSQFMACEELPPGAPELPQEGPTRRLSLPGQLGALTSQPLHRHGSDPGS
row,SMILES,"hERG current change (%, negative = inhibition) at 10uM [%]"
1,CCCC(C(=O)NCC1CCCO1)N(C(=O)CNS(=O)(=O)c1ccccc1)c1ccc(F)cc1 (stereo not drawn),2.7
2,CCN(CC)CCCN(CC(=O)N(C)Cc1ccccc1)C(=O)c1ccc([N+](=O)[O-])cc1.Cl.O,3.8
3,CCOC(=O)C1CCN(C(=O)COC(=O)c2nc3nc(C)cc(C)n3n2)CC1,2.52
4,COc1ccc(S(=O)(=O)N2CCCCCC2)cc1C(=O)Nc1cccc(C)n1,11.9
5,O=C(Nc1nc(-c2ccccc2)cs1)c1ccccc1F,20.2
6,COc1ccccc1NC(=O)C(Sc1ccccc1)c1ccccc1 (stereo not drawn),-6.32
7,C=CSc1sc(Cl)c(N(CC)CC)c1[N+](=O)[O-],13.4
8,COc1ccc(-n2c(C)cc(C(=O)COC(=O)Cn3cnc4ccccc43)c2C)cc1,-0.741
9,O=C(N/N=C/c1ccc2c(c1)OCO2)c1cccs1,11.2
10,CN(C)C/C=C(/c1ccc(Br)cc1)c1cccnc1.Cl,-71.5
11,CSc1nccc(-c2cc(Cl)sc2Cl)n1,6.21
12,Cc1cccc(Oc2nc(-c3cccc([N+](=O)[O-])c3)nc3ccccc23)c1C,-17.9
13,O=C(Nc1ccc2c(c1)OCO2)c1ccncc1,-0.833
14,COc1ccc(N2CC(C(=O)Nc3cccc(S(=O)(=O)N4CCCC4)c3)CC2=O)c(OC)c1 (stereo not drawn),-1.26
15,CC1(C(=O)NNC(=O)c2cccc([N+](=O)[O-])c2)CC1(Br)Br (stereo not drawn),-3.22
16,CC(=O)c1ccc2c(c1)OCCOCCOCCOCCOCCO2,-62.4
17,Cc1cccc(C(=O)NCC(=O)NCC(c2cccs2)N2CCOCC2)c1 (stereo not drawn),0.304
18,CCOc1ccc(C(=O)Cc2cc3cccc(OC)c3oc2=O)cc1,21.1
19,CCOc1ccc(CNC(=O)C2CCCN(S(C)(=O)=O)C2)cc1OC (stereo not drawn),-1.14
20,COc1ccc(C2C(C(=O)Nc3cccc(C)n3)c3ccccc3C(=O)N2C)cc1 (stereo not drawn),2.31
21,O=C(CSc1ncccc1C(=O)O)c1ccccc1,6.47
22,CCn1c(=O)cc(SCC(=O)NCCN2CCN(Cc3ccccc3)CC2)c2ccccc21,-49.4

row,SMILES,"hERG current change (%, negative = inhibition) at 10uM [%]"
1,COc1ccc(-c2cn3cc(Br)cnc3n2)cc1,23
2,N#C/C(=C/c1ccc(-c2ccc(Br)cc2)o1)C(=O)NC1CCCCC1,2.71
3,CCOC(=O)Cc1csc(NC(=O)c2ccc(S(=O)(=O)N3CCCC3)cc2)n1,-20.2
4,O=C(Cc1ccc([N+](=O)[O-])cc1)Nc1ccc2c(c1)CCC2,7.99
5,CCOc1ccc(C(=O)O[C@H]2[C@H](Cc3ccccc3)NS(=O)(=O)[C@H]3C[C@@H]4C=C[C@]23O4)cc1,11.5
6,COc1ccccc1Oc1ccc(S(=O)(=O)N2CCCCC2C)cc1 (stereo not drawn),-36.2
7,O=C(CN1CCN(c2ccccc2O)CC1)Nc1cc([N+](=O)[O-])ccc1Cl,-17.3
8,COc1ccc(C)cc1NC(=O)NC1CCCc2ccccc21 (stereo not drawn),8.57
9,COc1cc(Nc2c3ccccc3nc3ccccc23)cc(OC)c1OC,-63.9
10,Cc1cccc(NC(=O)C2CCN(S(=O)(=O)c3ccc4c(c3)NC(=O)CO4)CC2)c1,7.7
11,Cc1ccc(S(=O)(=O)Nc2cccc(-n3cnnn3)c2)cc1,-1.73
12,Cc1oc(-c2cccc(Cl)c2)nc1CN1CCC(C(=O)NCc2cccnc2)CC1,-60.9
13,Cc1ccc(C(=O)N/C(=C\c2cccc([N+](=O)[O-])c2)C(=O)Nc2cccc(C(=O)O)c2)cc1,15.2
14,COCC(C)NC(=O)c1ccccc1[N+](=O)[O-] (stereo not drawn),24.8
15,CCOC(=O)c1ccc(S(=O)(=O)NNS(=O)(=O)c2ccc(C)cc2)cc1,20.2
16,O=C(COC(=O)/C=C/c1cccc(C(F)(F)F)c1)NCc1ccco1,13.5
17,CC1(C)Cc2c(cnn2-c2ccc(F)cc2)C(NC(=O)C2CCC2)C1 (stereo not drawn),-79.2
18,O=C(Nc1ccc(Oc2cccnc2)cc1)C1CCN(Cc2cccc(Cl)c2)CC1,-52.8
19,O=S(=O)(c1ccccc1)N1CCC2(CC1)OCCO2,22.6
20,COC(=O)C1=C(N)Oc2cc(C)n(C)c(=O)c2C1c1ccc(Cl)cc1 (stereo not drawn),6.7
21,COC(=O)C1C(O)C(C)C(O)C(C)(O)/C=C\C=C(/C)C(=O)Nc2c(C)c(OC(C)=O)c3c(c2O)C(=O)C(C)=C2OCOC(=C23)/C(C)=C/C(C)(O)C(O)C(C)C1O (stereo not drawn),9.52
22,COc1ccc(NC(=O)c2ccccc2O)c(OC)c1,-7.13

row,SMILES,"hERG current change (%, negative = inhibition) at 10uM [%]"
1,CC(=O)Nc1ccc(-c2cc(NC(C)=O)n(-c3ccccc3)n2)cc1,12.1
2,CCOC(=O)N1CCN(c2c(NCCCN(CC)Cc3ccccc3)c(=O)c2=O)CC1,16.8
3,CCCNC(=S)Nc1ccc(Nc2ccccc2)cc1,-15
4,CCN(CC)C(=O)Oc1ccc2c(=O)c(-c3ccc(OC)cc3)coc2c1,15.2
5,CC(=O)Nc1ccc(OC(=O)N(C)c2ccccc2)cc1,11
6,COCCN(CCOC)Cc1c(O)ccc2c1O/C(=C\c1ccco1)C2=O,10.8
7,COc1cc(S(=O)(=O)NCCN2CCOCC2)ccc1-n1cnnn1,17.5
8,CCN1C(=NCC(C)C)N[C@@H](c2cccc(C(F)(F)F)c2)C(C(=O)OC)=C1C,-23.9
9,CC(C)COc1ccc(CNC(=S)NCc2ccccc2)cc1,7.8
10,Cc1ccccc1C(=O)N1CCC(C(=O)O)CC1,2.25
11,COc1ccc(C(C(=O)NC2CCCCC2)N(Cc2cccs2)C(=O)Cc2c[nH]c3ccccc23)cc1 (stereo not drawn),-3.43
12,CC(=O)c1ccc(S(=O)(=O)N2CCN(C)CC2)cc1,7.65
13,CC(C)CCn1c(O)c(N=Nc2ccccn2)c2ccccc21,-9.55
14,COc1ccc(C(NC(=O)c2cccc(F)c2)c2ccccc2)cc1 (stereo not drawn),14.1
15,c1ccc2c(C3=NNC(=NC4CC4)SC3)c[nH]c2c1,-20.1
16,Cc1cc(NS(=O)(=O)c2ccc(NC(=S)NC(=O)c3ccncc3)cc2)no1,5.68
17,COC(=O)c1ccccc1NC(=O)C12CCC(C)(C(=O)O1)C2(C)C (stereo not drawn),-2.05
18,CC(CCc1ccccc1)NC(=O)c1ccccc1Cl (stereo not drawn),-4.82
19,C=CCOc1cccc(C2NC(=O)c3ccccc3O2)c1 (stereo not drawn),21.4
20,C/C(=N\NC(=O)c1c(C)nc2ccccn12)c1ccco1,-0.583
21,O=C(NCc1ccco1)c1csc2c1CCCCC2,0.209
22,O=C(CSc1nc(-c2ccco2)cc(C(F)(F)F)n1)NC1CCCC1,-3.44

row,SMILES,"hERG current change (%, negative = inhibition) at 10uM [%]"
1,O=C1OCCN1c1c(-c2ccccc2)c(N2CCOCC2)nc2ccccc12,-25.8
2,O=C(NNC1=NC2(CCCC2)Cc2ccccc21)c1ccncc1,4.98
3,Cc1ccc(NC(=S)Nc2cccc3cnccc23)cc1C,7.79
4,CCNC(=O)CN(c1ccc(C)cc1)S(=O)(=O)c1ccccc1,7.75
5,CCN(CC)S(=O)(=O)c1ccc(N2CCCC2)c(NS(=O)(=O)c2ccc([N+](=O)[O-])cc2)c1,-7.41
6,O=[n+]1cc(-c2ccccc2)n([O-])c2c1CCC2,14.5
7,CC(O)C(=O)O.Cc1ccc(CN(CC(O)COc2cccc3[nH]cc(C)c23)C(C)(C)C)cc1 (stereo not drawn),-60.8
8,CC(C)(C)NC(=S)N/N=C/c1cc(Br)c(O)c(Br)c1,29.8
9,Cc1ccc[n+](CC(=O)c2ccc(-c3ccccc3)cc2)c1.[Br-],-52.4
10,Cn1nc(CC(=O)NCc2cccc3ccccc23)c2ccccc2c1=O,-5.46
11,CN(/N=C/c1cccnc1)c1cnc2ccccc2n1,-14.4
12,COCCCNC(=O)CN(c1cc(OC)ccc1OC)S(=O)(=O)c1ccccc1,7.54
13,CN(C(=O)c1nn(C)c2c1CSc1ccccc1-2)c1ccccc1Cl,3.14
14,C(=N\Nc1nc(Nc2ccccc2)nc(Nc2ccccc2)n1)/c1ccncc1,15.7
15,Cc1ccc(S(=O)(=O)N(C)C)cc1NC(=O)CN1C(=O)NC2(CCCCCC2)C1=O,-4.93
16,O=C(CCc1[nH]c2ccccc2c1Sc1ccccc1)N(CCO)CCO,-12
17,COc1ccccc1NC(=O)c1csc(-n2nc(C)cc2C(F)(F)F)n1,-4.7
18,COc1ccc(OC(=O)CCCN2C(=O)c3ccccc3C2=O)cc1,-6.92
19,O=C(O)CC1SC(N/N=C/c2ccc(Br)cc2)NC1=O (stereo not drawn),6.6
20,CC(=O)c1cc(C#N)c(N2CCOCC2)nc1C,8.69
21,Cc1ccc(N(C(=O)C2COc3ccccc3O2)C(C(=O)NC2CCCCC2)c2cn(C)nc2C)cc1 (stereo not drawn),0.406

# — paper PMC4336329 (PLoS ONE, 2015)
